Results reported in patent publication US20040053999A1, “Novel compounds and methods for synthesis and therapy” (priority 1997, published 2004).
Marks after values point to notes of the source that are not given here.

Tested on: Influenza A/NWS/33 (H1N1)
Assay: Influenza A (H1N1) infected mice, low dose oral administration study
Conditions: for % Survivors / Mean Surv. Time (days) / Mean SaO2 (%): p.o. bid x 5 days; for % Survivors / Surv/total: 21 days; for Surv/total: p.o. bid x 5 days from 4 hr pre-virus; for Mean Surv. Time (days): animals dying on or before day 21; for Mean SaO2 (%): mean of all assay times

Structure (SMILES) | % Survivors (0.1 mg/kg/day) [%] | % Survivors (1 mg/kg/day) | Surv/total (0.1 mg/kg/day) | Surv/total (1 mg/kg/day) | Surv/total (10 mg/kg/day) | Mean Surv. Time (days) (0.1 mg/kg/day) | Mean Surv. Time (days) (1 mg/kg/day) | Mean SaO2 (%) (1 mg/kg/day) | % Survivors (10 mg/kg/day) | Mean Surv. Time (days) (10 mg/kg/day) | Mean SaO2 (%) (10 mg/kg/day)
CC(=O)N[C@H]1[C@H]([C@H](O)[C@H](O)CO)OC(C(=O)O)=C[C@@H]1N=C(N)N [GG167, 4-guanidino-2,4-dideoxy-2,3-dehydro-N-acetylneuraminic acid] | 0 | 25% | – | – | – | – | – | – | – | – | –
CCOC(=O)C1=C[C@@H](OC(CC)CC)[C@H](NC(C)=O)[C@@H](N)C1 [compound 262] | 25 | 88*** % | 2/8 | 7/8*** | 8/8*** | 11.1** days | 14.0** days | 87.4* % | 100*** % | >21.0** days | 88.1** %
